# Experimental data from ChEMBL document CHEMBL4888484, “Replenishing the malaria drug discovery pipeline: Screening and hit evaluation of the MMV Hit Generation Library 1 (HGL1) against asexual blood stage Plasmodium falciparum ,using a nano luciferase reporter read-out” (2022).
# Among all 150,000 compounds or so, about 540 (0.36%) showed an effect of 50% or more. This is one part of the list.
# Test system: Plasmodium falciparum
# Experiment: Primary screen in NF54 nanoGlo assay, in single point, at 2uM, 72h; a lower Z score goes with more inhibition
# Format: functional, Erythrocyte
# Details: timepoint 72 hour
Structure (SMILES),% Inhibition,Z score
CC(=O)OCC(=O)N1CCC(CCc2ccc3c(c2)OCO3)CC1,18%,-2.75
Cc1onc(-c2ccccc2)c1C(=O)c1c[nH]c(C(=O)NCc2ccncc2)c1,38%,-4.95
COc1ccc(-c2nccn2C[C@H]2CCCCO2)cc1OC,-10%,1.36
CCCNC(=O)c1cc(OC)c(OC)c(OC)c1,-5%,0.58
OCC1CCN([C@H]2CN(Cc3ccc(-c4cc[nH]n4)s3)C[C@@H]2O)CC1,-1%,0.12
CC1CC(C)CN(S(=O)(=O)c2ccc(F)c(C(=O)NC3CCCCC3C)c2)C1 (stereo not drawn),-4%,0.75
Cc1nsc(N[C@H]2CC(=O)N(c3ccccc3)C2)n1,0%,-0.02
CCN(CC(C)(C)O)C(=O)Nc1cc(C)on1,-3%,0.3
Cc1cc(CC(=O)N2CCCCCC2CC(O)c2ccccc2)no1 (stereo not drawn),-15%,1.28
Cc1c(Cl)ccc2c(N(C)Cc3ccccc3)c(C(=O)O)cnc12,-2%,0.23
COc1ccc([C@H](CNC(=O)C2(O)CCC2)N2CCCCC2)cc1,4%,-0.72
Fc1ccc(C2(c3nc([C@H]4CCOC4)no3)CC2)cc1,-2%,0.33
COc1c[nH]c(C(=O)NC2CCN(Cc3ccccc3)CC2)cc1=O,60%,-7.68
O=C(NCc1ccc(N2CCOCC2)cc1)C1CCN(Cc2c(F)cccc2Cl)CC1,-13%,2.3
Nc1nc2c(c(NC[C@H]3CCN(c4ccccc4)C3)n1)CCNCC2,-13%,2.02
COc1ccc(CCNC(=O)CN2CCCO[C@@H](CN3CCCCC3)C2)cc1,-5%,0.43
O=C(Oc1ccc(N2CCCC2=O)cc1)c1ccc[nH]1,1%,-0.07
CCOCCCn1c(NC(=O)c2cc3ccccc3n2CC)nc2ccccc21,-3%,0.37
C[C@@H](CNC(=O)C1=Cc2ccccc2OC1)c1ccccc1,-9%,0.84
Cc1cc(C(=O)Nc2ccc3c(c2)C(=O)NC3)on1,4%,-0.66
c1ccc(-c2nc[nH]c2-c2cccn2-c2nccs2)cc1,7%,-1.31
Cc1ccccc1OC1CN(C(=O)[C@@H]2CCCN2C2CCN(C)CC2)C1,-5%,0.74
Cc1cc(C)cc(NC(=O)[C@H]2CC23CCN(Cc2ccc4c(c2)OCO4)CC3)c1,-4%,0.48
C[C@@H](Cc1ccccn1)n1cnc2ccccc2c1=O,-7%,1
